Results from the supplement of paper PMC4967469.
A lower IC50 marks a more sensitive line; a limit (>, <) means that the fit lies beyond the doses tested. The AUC spans the tested range (256-fold, ending at the top dose) of the same fit; values near 1 show little effect. For some assays here: Any top dose called inferred was calculated from the reported fits. For some assays here: Where an entry number is given, a second screen of the drug exists; the two often differ.

Experiments:
Assay in all cases: Viability of human cancer cell lines after 72 h of drug (GDSC screen)
BX-912 = compound: O=C(Nc1cccc(Nc2ncc(Br)c(NCCc3cnc[nH]3)n2)c1)N1CCCC1 [BX-912]; details: top dose 10.24 µM; top dose inferred
Description: (§1)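 Human cancer cell lines in 384-well plates, medium with 10% serum, drug for 72 h over a 256-fold dose range (nine 2-fold or five 4-fold steps up to the top dose). Adherent lines were fixed and stained with the nucleic acid dye Syto60, suspension lines read with resazurin; signal relative to control wells, capped at 0 and 100%. One two-parameter sigmoid per drug and line, fitted in a mixed model over all curves with the slope shared within a line.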

Tamoxifen = compound: CC/C(=C(\c1ccccc1)c1ccc(OCCN(C)C)cc1)c1ccccc1 [Tamoxifen]; details: top dose 5 µM
Description: as §1

LAQ824 = compound: O=C(/C=C/c1ccc(CN(CCO)CCc2c[nH]c3ccccc23)cc1)NO [LAQ824]; details: top dose 1.024 µM; top dose inferred
Description: as §1

Masitinib = compound: Cc1ccc(NC(=O)c2ccc(CN3CCN(C)CC3)cc2)cc1Nc1nc(-c2cccnc2)cs1 [Masitinib]; details: top dose 20 µM
Description: as §1

HG-5-88-01 = compound: COc1cc(N2CCC(C(N)=O)CC2)ccc1Nc1nc(N)c(Cl)c(Nc2ccccc2S(=O)(=O)C(C)C)n1 [HG-5-88-01]; details: top dose 10 µM; top dose inferred
Description: as §1

VNLG/124 = compound: CCCC(=O)OCc1ccc(OC(=O)/C=C(C)/C=C/C=C(C)/C=C/C2=C(C)CCCC2(C)C)cc1 [VNLG/124]; details: top dose 5.12 µM; top dose inferred
Description: as §1

Elesclomol = compound: CN(NC(=O)CC(=O)NN(C)C(=S)c1ccccc1)C(=S)c1ccccc1 [Elesclomol]; details: top dose 0.2 µM; top dose inferred
Description: as §1

NSC-87877 = compound: O=S(=O)(O)c1ccc2cc(N=Nc3cc(S(=O)(=O)O)c4cccnc4c3O)ccc2c1 [NSC-87877]; details: top dose 16 µM; top dose inferred
Description: as §1

OSI-930 = compound: O=C(Nc1ccc(OC(F)(F)F)cc1)c1sccc1NCc1ccnc2ccccc12 [OSI-930]; details: top dose 10.24 µM
Description: as §1

Bleomycin = compound: Cc1c(N)nc([C@H](CC(N)=O)NC[C@H](N)C(N)=O)nc1C(=O)N[C@H](C(=O)N[C@H](C)[C@@H](O)[C@H](C)C(=O)N[C@H](C(=O)NCCc1nc(-c2nc(C(=O)NCCC[S+](C)C)cs2)cs1)[C@@H](C)O)[C@@H](OC1OC(CO)C(O)C(O)C1OC1OC(CO)C(O)C(OC(N)=O)C1O)c1cnc[nH]1 [Bleomycin]
Description: as §1

[1] = top dose 50 µM, screen: GDSC drug entry 1378, top dose inferred
[2] = top dose 64 µM, screen: GDSC drug entry 190

Row | Cell Line | AUC (BX-912) | IC50 (BX-912) [µM] | AUC (Tamoxifen) | IC50 (Tamoxifen) [µM] | AUC (LAQ824) | IC50 (LAQ824) [µM] | AUC (Masitinib) | IC50 (Masitinib) [µM] | AUC (HG-5-88-01) | IC50 (HG-5-88-01) [µM] | AUC (VNLG/124) | IC50 (VNLG/124) [µM] | AUC (Elesclomol) | IC50 (Elesclomol) [µM] | AUC (NSC-87877) | IC50 (NSC-87877) [µM] | AUC (OSI-930) | IC50 (OSI-930) [µM] | AUC (Bleomycin; [1]) | IC50 (Bleomycin; [1]) [µM] | AUC (Bleomycin; [2]) | IC50 (Bleomycin; [2]) [µM]
1 | D-263MG (glioma, adherent) | 0.873 | > 10.2 | 0.974 | > 5 | 0.708 | 0.283 | 0.983 | > 20 | 0.911 | > 10 | 0.977 | > 5.12 | 0.735 | 0.0688 | 0.983 | > 16 | 0.966 | > 10.2 | 0.574 | 5.2 | 0.892 | > 64
2 | NCI-H1436 (small cell lung carcinoma, suspension) | 0.853 | 9.85 | 0.93 | > 5 | 0.566 | 0.0995 | 0.894 | > 20 | 0.947 | > 10 | 0.986 | > 5.12 | 0.956 | > 0.2 | 0.969 | > 16 | 0.983 | > 10.2 | 0.931 | > 50 | 0.979 | > 64
3 | SNU-387 (liver, adherent) | 0.552 | 0.907 | 0.982 | > 5 | 0.499 | 0.0638 | 0.9 | > 20 | 0.758 | 3.92 | 0.984 | > 5.12 | 0.531 | 0.0154 | 0.979 | > 16 | 0.984 | > 10.2 | 0.694 | 11.9 | 0.33 | 1.25
4 | WSU-DLCL2 (B-cell lymphoma, suspension) | 0.821 | 4.66 | 0.569 | 0.467 | 0.989 | > 1.02 | 0.819 | 8.96 | 0.417 | 0.385 | 0.993 | > 5.12 | 0.608 | 0.0234 | 0.947 | > 16 | 0.929 | > 10.2 | 0.491 | 2.97 | 0.503 | 4.08
5 | NCI-H446 (small cell lung carcinoma, semi-adherent) | 0.698 | 2.42 | 0.932 | > 5 | 0.571 | 0.101 | 0.761 | 7.56 | 0.897 | > 10 | 0.982 | > 5.12 | 0.935 | > 0.2 | 0.985 | > 16 | 0.985 | > 10.2 | 0.807 | 27.9 | 0.739 | 20.4
6 | LB2241-RCC (kidney, adherent) | 0.984 | > 10.2 | 0.956 | > 5 | 0.489 | 0.0596 | 0.979 | > 20 | 0.858 | 9.87 | 0.982 | > 5.12 | 0.696 | 0.0476 | 0.984 | > 16 | 0.981 | > 10.2 | 0.281 | 0.687 | 0.29 | 0.94
7 | MFE-296 (endometrium, adherent) | 0.939 | > 10.2 | 0.965 | > 5 | 0.454 | 0.0475 | 0.944 | > 20 | 0.937 | > 10 | 0.985 | > 5.12 | 0.604 | 0.0247 | 0.966 | > 16 | 0.966 | > 10.2 | 0.437 | 2.07 | 0.204 | 0.491
8 | ALL-SIL (T-cell leukaemia, suspension) | 0.141 | 0.0613 | 0.969 | > 5 | 0.159 | 0.00712 | 0.062 | < 0.0781 | 0.818 | 4.65 | 0.976 | > 5.12 | 0.615 | 0.0247 | 0.987 | > 16 | 0.809 | 4.45 | 0.57 | 4.72 | 0.162 | 0.457
9 | H2369 (mesothelioma, adherent) | 0.969 | > 10.2 | 0.982 | > 5 | 0.265 | 0.0133 | 0.97 | > 20 | 0.972 | > 10 | 0.983 | > 5.12 | 0.421 | 0.00753 | 0.847 | 12.4 | 0.977 | > 10.2 | 0.636 | 7.5 | 0.436 | 2.66
10 | NCI-H841 (small cell lung carcinoma, adherent) | 0.965 | > 10.2 | 0.987 | > 5 | 0.712 | 0.256 | 0.796 | 9.4 | 0.986 | > 10 | 0.982 | > 5.12 | 0.407 | 0.00695 | 0.987 | > 16 | 0.959 | > 10.2 | 0.553 | 4.35 | 0.897 | > 64
11 | NB5 (neuroblastoma, adherent) | 0.9 | > 10.2 | 0.963 | > 5 | 0.558 | 0.0925 | 0.909 | > 20 | 0.893 | > 10 | 0.987 | > 5.12 | 0.608 | 0.0249 | 0.978 | > 16 | 0.966 | > 10.2 | 0.465 | 2.5 | 0.585 | 6.84
